# Data from PMC2920814 (PLoS ONE, 2010).
# Values joined by “and” are separate entries in the source; they are usually repeats but may differ in a detail not shown here. Equal entries are not always repeated.
# Tested on: transient focal cerebral ischemia (tMCAo) in rats
# Test: Transient middle cerebral artery occlusion (tMCAo) 90 min, Neurokin study, infarct volumes by TTC staining
# Conditions: 90 min tMCAo; IV bolus 25 mg/kg 15 min prior + SC 54 mg/kg 15 min prior, 24 and 29 hrs after occlusion; 48 hrs post-occlusion
compound,measurement,value
CC[C@@H](CO)Nc1nc(NCc2ccccc2)c2ncn(C(C)C)c2n1 [(S)-roscovitine],decrease of sub-cortical infarct volume,26% and 33%
same,decrease of total infarct volume,30%
